Assay results: the supplement of paper PMC10126150
Sequences with one replicate were seen in a single cluster, so their values are uncertain.

System: ATP
Test: switch fluorescence ratio, 500 uM ATP over buffer (Cy3 cluster intensity, sum of 5 cycles each) (fold (ratio)); higher = stronger signal-on switching upon ATP binding; sequences stand for … in TCGTCGGCAGCGTCAGATGTGTATAAGAGACAGTTTTTTTTTTTTTTTTTTTTTTTTT…TC
Conditions: aptamer strand: ATP DNA aptamer (quencher-CACCTGGGGGAGTATTGCGGAGGAAGG + anchor), 100 nM annealed; ATP concentration: 500 uM; one replicate
How it was run: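 After annealing to 100 nM quencher-labelled ATP aptamer, Cy3-labelled switching-strand clusters on a modified Illumina MiSeq flow-cell were imaged in selection buffer. A second image followed after 15 min with 500 uM ATP at 22 °C, and five such buffer/ATP cycles were done, each separated by NaOH stripping and re-annealing. The fluorescence ratio, averaged per switch-domain sequence, is summed target-cycle over summed buffer-cycle Cy3 intensity per cluster, with clusters outside 100-1000 RFU excluded.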
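Further: ATP exposure 15 min at 22 °C before imaging.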

Row | Sequence | switch fluorescence ratio
1 | TTTAGATTAG | 1
2 | TTTAGCCGGC | 0.994
3 | TTTAGGGTAG | 0.972
4 | TTTAGGTAAA | 0.994
5 | TTTAGTATTC | 1.02
6 | TTTAGTATTG | 0.997
7 | TTTATATCG | 0.959
8 | TTTATCACGA | 0.971
9 | TTTATCTCAG | 1.01
10 | TTTATGACGG | 0.983
11 | TTTATGTTC | 0.996
12 | TTTATTCCAA | 1.01
13 | TTTATTCTAG | 0.974
14 | TTTATTTCGT | 1.01
15 | TTTCAAGTAA | 1.29
16 | TTTCAATCCT | 1.08
17 | TTTCACAGGT | 1.16
18 | TTTCACGCTA | 1.35
19 | TTTCACGGGT | 1.01
20 | TTTCACGTG | 1.01
21 | TTTCAGAGAG | 0.967
22 | TTTCAGGGAC | 1.12
23 | TTTCATATAT | 0.983
24 | TTTCATATTG | 0.984
25 | TTTCATCATG | 0.985
26 | TTTCATGGAC | 0.988

Row | Sequence | switch fluorescence ratio
27 | TTTCATTCCA | 1.03
28 | TTTCCACGAT | 1.05
29 | TTTCCAGTAG | 0.973
30 | TTTCCCGGCG | 1.35
31 | TTTCCGAATA | 5.7
32 | TTTCCGAGGT | 1.07
33 | TTTCCGCATA | 2.76
34 | TTTCCTAATG | 1.02
35 | TTTCCTTTAC | 1.24
36 | TTTCGAGATC | 1
37 | TTTCGAGCGA | 1.05
38 | TTTCGATGT | 0.972
39 | TTTCGATTAA | 0.984
40 | TTTCGCACCC | 1.25
41 | TTTCGCGCA | 1.07
42 | TTTCGCTTGG | 1
43 | TTTCGGCATA | 1.1
44 | TTTCGGCCTC | 1.01
45 | TTTCGGGCTA | 0.992
46 | TTTCGGGT | 1
47 | TTTCGGTGCC | 0.954
48 | TTTCGTA | 0.925
49 | TTTCGTACTA | 0.996
50 | TTTCTAGAGG | 0.954
51 | TTTCTATCAC | 1.05
52 | TTTCTCACG | 1.06

Row | Sequence | switch fluorescence ratio
53 | TTTCTCAGGT | 1.06
54 | TTTCTCTCC | 1.1
55 | TTTCTCTTCG | 1.01
56 | TTTCTGAAAA | 1.05
57 | TTTCTGAGTA | 0.965
58 | TTTCTGGCTC | 0.963
59 | TTTCTTAT | 0.997
60 | TTTCTTCAGT | 0.996
61 | TTTCTTGCTT | 1.16
62 | TTTGAAATAG | 0.993
63 | TTTGAACC | 0.98
64 | TTTGAAGCAC | 1.2
65 | TTTGAAGCTG | 0.943
66 | TTTGAATTCC | 1.06
67 | TTTGACAGGT | 1.06
68 | TTTGACCAGC | 1.04
69 | TTTGACCCTT | 1.08
70 | TTTGACCGAG | 1.05
71 | TTTGACCGGT | 0.985
72 | TTTGACCTCT | 1.02
73 | TTTGACTA | 1.01
74 | TTTGACTAG | 0.955
75 | TTTGACTTTG | 1.04
76 | TTTGAGCAAT | 4.74
77 | TTTGATGGAA | 0.974
78 | TTTGATTGTC | 1

Row | Sequence | switch fluorescence ratio
79 | TTTGCAATAT | 1.23
80 | TTTGCAGTTA | 1.04
81 | TTTGCATC | 0.986
82 | TTTGCATGTC | 1.09
83 | TTTGCATTCG | 1.05
84 | TTTGCCACC | 1.02
85 | TTTGCCTCGC | 0.972
86 | TTTGCGAAAT | 0.972
87 | TTTGCGGCGA | 1.02
88 | TTTGCGGTAG | 1.03
89 | TTTGCTATGC | 1.09
90 | TTTGCTATTT | 1.08
91 | TTTGGAAACA | 0.987
92 | TTTGGACAT | 0.993
93 | TTTGGAGGCA | 0.97
94 | TTTGGAGGCG | 0.927
95 | TTTGGATTAC | 1.06
96 | TTTGGCGCCA | 1
97 | TTTGGGCGTG | 0.99
98 | TTTGGTACCA | 1
99 | TTTGGTCCAT | 1.01
100 | TTTGGTCCCC | 1.01
101 | TTTGGTTCG | 0.99
